Test results as given in the supplement of paper PMC8728848.
The list shows a part of the results.

What was measured:
Test in all cases: glycan array binding signal (z-score within array); higher = stronger binding
Conditions in all cases: glycan notation: IUPAC condensed, linker removed
[1] = target: Gal(b1-3)GlcNAc(b1-3)Gal(b1-4)[Fuc(a1-3)]GlcNAc(b1-6)[Gal(b1-3)GlcNAc(b1-3)]Gal(b1-4)Glc
In short: (§1)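 The binding signal is a Z-score computed within each array and averaged over linkers. Arrays of the same protein sequence at different concentrations or buffers were also averaged together. Data originate from 3228 arrays in the Consortium for Functional Glycomics database, kept only where the protein sequence was available.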

[2] = target: Gal(b1-3)GlcNAc(b1-3)GalNAc
In short: as §1

[3] = target: Gal(b1-3)GlcNAc(b1-6)Gal(b1-4)GlcNAc
In short: as §1

[4] = target: Gal(b1-3)[Fuc(a1-4)]GlcNAc
In short: as §1

[5] = target: Gal(b1-3)[Fuc(a1-4)]GlcNAc(b1-2)Man(a1-3)[Gal(b1-3)[Fuc(a1-4)]GlcNAc(b1-2)Man(a1-6)]Man(b1-4)GlcNAc(b1-4)GlcNAc
In short: as §1

[6] = target: Gal(b1-3)[Fuc(a1-4)]GlcNAc(b1-2)Man(a1-3)[Gal(b1-3)[Fuc(a1-4)]GlcNAc(b1-2)Man(a1-6)]Man(b1-4)GlcNAc(b1-4)[Fuc(a1-6)]GlcNAc
In short: as §1

[7] = target: Gal(b1-3)[Fuc(a1-4)]GlcNAc(b1-3)Gal(b1-3)[Fuc(a1-4)]GlcNAc
In short: as §1

[8] = target: Gal(b1-3)[Fuc(a1-4)]GlcNAc(b1-3)Gal(b1-4)GlcNAc
In short: as §1

[9] = target: Gal(b1-3)[Fuc(a1-4)]GlcNAc(b1-3)Gal(b1-4)[Fuc(a1-3)]GlcNAc
In short: as §1

[10] = target: Gal(b1-3)[GlcNAc(b1-6)]GalNAc
In short: as §1

[11] = target: Gal(b1-3)[Neu5Ac(a2-6)]GalNAc
In short: as §1

[12] = target: Gal(b1-3)[Neu5Ac(a2-6)]GlcNAc(b1-6)Gal(b1-4)Glc
In short: as §1

[13] = target: Gal(b1-3)[Neu5Ac(b2-6)]GalNAc
In short: as §1

Gal(b1-4)Gal = target: Gal(b1-4)Gal
In short: as §1

[14] = target: Gal(b1-4)GalNAc(a1-3)[Fuc(a1-2)]Gal(b1-4)GlcNAc
In short: as §1

[15] = target: Gal(b1-4)GalNAc(b1-3)[Fuc(a1-2)]Gal(b1-4)GlcNAc
In short: as §1

Gal(b1-4)Glc = target: Gal(b1-4)Glc
In short: as §1

Gal(b1-4)Glc6S = target: Gal(b1-4)Glc6S
In short: as §1

Gal(b1-4)GlcNAc = target: Gal(b1-4)GlcNAc
In short: as §1

[16] = target: Gal(b1-4)GlcNAc(a1-6)Gal(b1-4)GlcNAc
In short: as §1

[17] = target: Gal(b1-4)GlcNAc(b1-2)Man(a1-3)Man(b1-4)GlcNAc(b1-4)GlcNAc
In short: as §1

[18] = target: Gal(b1-4)GlcNAc(b1-2)Man(a1-3)[Gal(b1-4)GlcNAc(b1-2)Man(a1-6)]Man(b1-4)GlcNAc(b1-4)GlcNAc
In short: as §1

[19] = target: Gal(b1-4)GlcNAc(b1-2)Man(a1-3)[Gal(b1-4)GlcNAc(b1-2)Man(a1-6)]Man(b1-4)GlcNAc(b1-4)[Fuc(a1-6)]GlcNAc
In short: as §1

[20] = target: Gal(b1-4)GlcNAc(b1-2)Man(a1-3)[Gal(b1-4)GlcNAc(b1-2)][GlcNAc(b1-4)]Man(b1-4)GlcNAc(b1-4)GlcNAc
In short: as §1

[21] = target: Gal(b1-4)GlcNAc(b1-2)Man(a1-3)[GlcNAc(b1-2)Man(a1-6)]Man(b1-4)GlcNAc(b1-4)GlcNAc
In short: as §1

[22] = target: Gal(b1-4)GlcNAc(b1-2)Man(a1-3)[Man(a1-6)]Man(b1-4)GlcNAc(b1-4)GlcNAc
In short: as §1

[23] = target: Gal(b1-4)GlcNAc(b1-2)Man(a1-6)Man(b1-4)GlcNAc(b1-4)GlcNAc
In short: as §1

[24] = target: Gal(b1-4)GlcNAc(b1-2)Man(a1-6)[GlcNAc(b1-2)Man(a1-3)]Man(b1-4)GlcNAc(b1-4)GlcNAc
In short: as §1

[25] = target: Gal(b1-4)GlcNAc(b1-2)Man(a1-6)[Man(a1-3)]Man(b1-4)GlcNAc(b1-4)GlcNAc
In short: as §1

[26] = target: Gal(b1-4)GlcNAc(b1-2)[Gal(b1-4)GlcNAc(b1-4)]Man(a1-3)[Gal(b1-4)GlcNAc(b1-2)Man(a1-6)]Man(b1-4)GlcNAc(b1-4)GlcNAc
In short: as §1

[27] = target: Gal(b1-4)GlcNAc(b1-2)[Gal(b1-4)GlcNAc(b1-4)]Man(a1-3)[Gal(b1-4)GlcNAc(b1-2)[Gal(b1-4)GlcNAc(b1-6)]Man(a1-6)]Man(b1-4)GlcNAc(b1-4)GlcNAc
In short: as §1

[28] = target: Gal(b1-4)GlcNAc(b1-2)[Gal(b1-4)GlcNAc(b1-4)]Man(a1-3)[GlcNAc(b1-4)][Gal(b1-4)GlcNAc(b1-2)Man(a1-6)]Man(b1-4)GlcNAc(b1-4)GlcNAc
In short: as §1

[29] = target: Gal(b1-4)GlcNAc(b1-2)[Gal(b1-4)GlcNAc(b1-6)]Man(a1-6)[GlcNAc(b1-4)][Gal(b1-4)GlcNAc(b1-2)Man(a1-3)]Man(b1-4)GlcNAc(b1-4)GlcNAc
In short: as §1

[30] = target: Gal(b1-4)GlcNAc(b1-3)Gal(b1-3)GlcNAc
In short: as §1

[31] = target: Gal(b1-4)GlcNAc(b1-3)Gal(b1-4)Glc
In short: as §1

[32] = target: Gal(b1-4)GlcNAc(b1-3)Gal(b1-4)GlcNAc
In short: as §1

[33] = target: Gal(b1-4)GlcNAc(b1-3)Gal(b1-4)GlcNAc(b1-3)Gal(b1-4)GlcNAc
In short: as §1

B1: Gal 3 (Canis lupus) (protein)
chain: MADSFSLNDALSGSGNPNPQGWPGPWGNQPAGAGGYPGASYPGAYPGQAPPGGYPGQAPPGGYPGQAPPGGYPGQAPPGGYPGQAPPGGYPGQAPPGTYPGPTAPAYPGPTAPGTQPGQPSGPGAYPPPGQPSAPGAYPAAGPFGIPAGPLTVPYDLPLPGGVKPRMLITILGTVRPSANRLALDFKRGNDVAFHFNPRFNEDNKRVIVCNTKLDNIWGKEERQAAFPFESGKPFKIQVLVESDHFKVAVNDAHLLQYNHRMKNLPEISKLGISGDIDLTSASYAMI
[1]
  glycan array binding signal (z-score): -0.143
[2]
  glycan array binding signal (z-score): -0.224
[3]
  glycan array binding signal (z-score): -0.231
[4]
  glycan array binding signal (z-score): -0.26
[5]
  glycan array binding signal (z-score): -0.163
[6]
  glycan array binding signal (z-score): -0.197
[7]
  glycan array binding signal (z-score): -0.262
[8]
  glycan array binding signal (z-score): -0.186
[9]
  glycan array binding signal (z-score): -0.258
[10]
  glycan array binding signal (z-score): -0.249
[11]
  glycan array binding signal (z-score): -0.252
[12]
  glycan array binding signal (z-score): -0.257
[13]
  glycan array binding signal (z-score): -0.259
Gal(b1-4)Gal
  glycan array binding signal (z-score): -0.154
[14]
  glycan array binding signal (z-score): 2.74
[15]
  glycan array binding signal (z-score): -0.247
Gal(b1-4)Glc
  glycan array binding signal (z-score): -0.259
Gal(b1-4)Glc6S
  glycan array binding signal (z-score): -0.255
Gal(b1-4)GlcNAc
  glycan array binding signal (z-score): -0.239
[16]
  glycan array binding signal (z-score): -0.202
[17]
  glycan array binding signal (z-score): -0.192
[18]
  glycan array binding signal (z-score): 0.134
[19]
  glycan array binding signal (z-score): -0.133
[20]
  glycan array binding signal (z-score): -0.126
[21]
  glycan array binding signal (z-score): -0.157
[22]
  glycan array binding signal (z-score): -0.214
[23]
  glycan array binding signal (z-score): -0.15
[24]
  glycan array binding signal (z-score): -0.238
[25]
  glycan array binding signal (z-score): -0.242
[26]
  glycan array binding signal (z-score): 0.313
[27]
  glycan array binding signal (z-score): 0.352
[28]
  glycan array binding signal (z-score): -0.144
[29]
  glycan array binding signal (z-score): -0.137
[30]
  glycan array binding signal (z-score): 1.01
[31]
  glycan array binding signal (z-score): 0.512
[32]
  glycan array binding signal (z-score): 2.67
[33]
  glycan array binding signal (z-score): 5.09
